Source: the supplement of paper PMC11417369
± gives the standard deviation of the averaged measurements. The list shows a part of the results.

These sequences were tested on PfAP2-EXP AP2 domain (GST-tagged) (assay: gcPBM binding intensity (ln(normalized median fluorescence intensity)); higher = stronger DNA binding).
Outline: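 The highest Masliner-normalised natural-log median intensity across replicate spots of either probe orientation is reported as binding intensity. GST-tagged P. falciparum DNA-binding domains expressed in E. coli were applied for 1 h to an Agilent 4 × 180k array of primer-extended double-stranded 36-bp intergenic genomic probes plus negative controls, and bound protein was detected with Alexa488 anti-GST antibody and scanned at 488 nm.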

Row | Sequence | gcPBM binding intensity (ln)
1 | ATAACACAAAATTGTTGTACACGTGTTAATAAGTGA [XGTACX_site4452] | 9.12 ± 0.33
2 | ATATATATGAAACACACACACAAAAAAAAAAAAAAA [CACACA_site3647] | 8.24 ± 0.59
3 | AATATTTATATAAATGCATGCTGATACAACAGTCTT [TGCATGCA_site21] | 9.1 ± 0.38
4 | TAAAGTTATGCAATAACACACATATACAATACATAT [CACACA_site6698] | 8.78 ± 0.47
5 | TATATAACCGAGTGCACACACAAAAAAAAAGTGAAC [CACACA_site6806] | 9.2 ± 0.47
6 | AGGAAACAAGAAATGAAGAATCATGTAGAAGGCCCA [GTGCAC_negctrl_site187] | 8.65 ± 0.5
7 | TATTAAATATTGTATACATGCAAATACTAGAAAATT [TGCATGCA_site370] | 9.07 ± 0.35
8 | AATAATATAAATATTACACACTAATTGTATTATAGA [CACACA_site6347] | 8.11 ± 0.4
9 | TTTGCGTAGAAATGTGTGCACTGATATTTATAATAA [GTGCAC_site9526] | 8.905 ± 0.078
10 | ATTTTCCTTTTACCACGTACACATAAAAACGTTATA [XGTACX_site3595] | 8.88 ± 0.47
11 | TGAACTCATAGGAAAACACACATATGGGTAATATAT [CACACA_site187] | 8.82 ± 0.44
12 | AAAAAAAATCAAATGGGTACTTATTCTTAATAATAT [XGTACX_site3792] | 8.35 ± 0.54
13 | ATATATACATACAAATTAATTACGAGGAATATATTA [XGTACX_negctrl_site417] | 8.64 ± 0.36
14 | ACATATTCATATGGAAGTACGATAATGTAGTCATAT [XGTACX_site7080] | 8.64 ± 0.37
15 | ATAAATATATTTAAATGTACATAATATATATATATA [XGTACX_site5137] | 9.96 ± 0.18
16 | TATATATATTTAAAGGTGCAGATGCCAGTGTATATT | 8.89 ± 0.24
17 | AATGAACTCACGAGCACACACACACCGATATATATA [CACACA_site4710] | 8.82 ± 0.42
18 | TATACATATATATACACACACACATATATATATATA [CACACA_site1299] | 10 ± 0.27
19 | GTAAAAAAATTAAAAATTAACAAGGAATTAAGTATA [CACACA_negctrl_site1688] | 8.38 ± 0.35
20 | GGAACTTATTTTTATACACACATATGTGCATATTAT [CACACA_site629] | 8.81 ± 0.35
21 | ATCATAAATATAGCAACACACGGATTACATAAAATA [CACACA_site2796] | 8.9 ± 0.5
22 | TTGTAATAAATAAAAGTGCAGATATGGTTCCACTAA [GTGCAC_site9942] | 8.39 ± 0.11
23 | TTAAAAAAATAATTAACACACACATGTATATCTATA [CACACA_site9026] | 8.21 ± 0.42

Row | Sequence | gcPBM binding intensity (ln)
24 | TATATATATACCAACACACATACATATATATATATA [CACACA_site1795] | 10 ± 0.27
25 | TGAATAAATATATATACACACATATCTGTATTTATT [CACACA_site4991] | 8.32 ± 0.27
26 | AAATTTGGCAGACACACACACACACGCACACGCACA [CACACA_site6423] | 8.66 ± 0.5
27 | CCCTCCCCATGTTTAGTGCAAAAATATTTGAAATTG [GTGCAC_site9873] | 9.98 ± 0.18
28 | TATGAAATTAGAATTACACACAGGAAAATAAAATGC [CACACA_site6822] | 8.97 ± 0.37
29 | AAAATATATATTTGTTGTACAATATTAATTATTAAA [XGTACX_site1612] | 8.66 ± 0.4
30 | CCCAAAAAAAATTTATGTACTTATTAAATATATATA [XGTACX_site6455] | 9.01 ± 0.79
31 | TTTATATAAATTTAAGTGCAAAATGAACAAGTGAAA | 9.13 ± 0.21
32 | TTCAATGCTAATTTATGTACATATGTATATAAAATA [XGTACX_site8335] | 8.2 ± 0.4
33 | TGCAAAGGTGAAAGAACACACAAAAAAAAAAAAAAA [CACACA_site4024] | 8.27 ± 0.56
34 | TTCAAAGGGAAATTAACACACACATATATATATATA [CACACA_site8777] | 10.1 ± 0.31
35 | AATTTTAGATTTAGCACACATTTTTTTTTTTTTTTT [CACACA_site6105] | 8.53 ± 0.14
36 | TTTTTAATCTCATATGTATAATATATTTTTATTAAA [XGTACX_negctrl_site236] | 8.42 ± 0.58
37 | AAAAAAAAAAAAAGAACATGCGACTTTAAGAACTGG [TGCATGCA_site792] | 8.73 ± 0.49
38 | TAAAAAATTATATATTGTACGAATGCATAAAAAAAA [XGTACX_site4606] | 8.95 ± 0.37
39 | TATGAAAATAAAATATGTACATATTTTAAATGTTAT [XGTACX_site7352] | 8.59 ± 0.31
40 | CAAATGTGTTCTTCAGGTACAGATACACATTTATGA [XGTACX_site2664] | 8.34 ± 0.35
41 | CACCATGTTAACAAAGCATGCATCTCTATAGTTTTA [TGCATGCA_site97] | 9.06 ± 0.54
42 | AAACAAAAAATATATACACACTAAACATAAAAAAAA [CACACA_site4185] | 8.63 ± 0.41
43 | AGTGACACCAAAGGGGTGCAATGAAATTAAAAATAT | 8.84 ± 0.21
44 | TTTATTCATTTCTAAAAATATTAAAATAGAATGAAT [CACACA_negctrl_site325] | 8.3 ± 0.52
45 | TAAAAAAAAATAAATGGTACACAATTAAATGTTTAT [XGTACX_site5255] | 8.47 ± 0.28
46 | ATATACTATATATAATGTACATATATATTATTATGC [XGTACX_site2957] | 8.52 ± 0.37

Row | Sequence | gcPBM binding intensity (ln)
47 | ATAAGAAAATCAAAAAGTACTTTTTACAAAGATAAA [XGTACX_site824] | 8.67 ± 0.4
48 | ATTTTATGATATATTTGTACTTAACATTTGGATATA [XGTACX_site5888] | 8.53 ± 0.36
49 | TAGTTTTTTATATATTGTACAAATAATATATTATAT [XGTACX_site2564] | 8.6 ± 0.5
50 | TAAATTCTTTAAAACTTTAAAACAAAAAAAAAAAAA [CACACA_negctrl_site1078] | 8.26 ± 0.41
51 | GTAATTATTAATAAAACATGCGTATAAAATTTTCTC [TGCATGCA_site50] | 8.7 ± 0.37
52 | TCTTTTTTTAATAAAACATGCAATATTATATATGTA [TGCATGCA_site236] | 8.55 ± 0.18
53 | AAAAAAATATATATATATATATATATATATTTATAT [XGTACX_negctrl_site86] | 8.57 ± 0.13
54 | AACAGACGAAGACACACACACATATATATATATATA [CACACA_site1020] | 10.2 ± 0.21
55 | CGTTTTCTATATCATTGTACATATTCATGTGTAAAT [XGTACX_site2741] | 8.57 ± 0.33
56 | TAAAAGTTCACCTGTACACACATATAAATATGTACA [CACACA_site6901] | 8.47 ± 0.33
57 | TTGTTTAAGTCACGAACACACATATATCATCAATTT [CACACA_site986] | 8.47 ± 0.38
58 | AAAATTAACCGTAACACACACACATATAAATATGTA [CACACA_site7791] | 8.48 ± 0.43
59 | ATTAATAAATTCAATTGTACTTGTTTATACATAAAA [XGTACX_site3733] | 8.36 ± 0.23
60 | TTATTTTATTTTTGTGCACACTGATAAATTGAAAAG [CACACA_site2949] | 8.93 ± 0.23
61 | ATTTATTTTGTTGTTGTTTTTATTTGATTGTTTTAT [CACACA_negctrl_site1275] | 8.76 ± 0.55
62 | TTATGGTGCAACATTATGCACACCGTTAAATAACTA [CACACA_site3846] | 8.67 ± 0.17
63 | ATTTATGAAAAATGTACACACATCAAATGCTTATAT [CACACA_site4068] | 8.62 ± 0.42
64 | ACAAAATTATGTAGATGTACAGACATAGAAAGAGAT [XGTACX_site3096] | 9.28 ± 0.38
65 | GTTTGAATGGCGCACTGTACACATATATACATATAG [XGTACX_site8619] | 9.12 ± 0.43
66 | TACATATATATATATGTACACACATTAATAAAAAAA [CACACA_site9058] | 8.68 ± 0.3
67 | ATATTTTATTTTAATACACACAAGTTATATAACCAC [CACACA_site6508] | 8.59 ± 0.41
68 | ATAACAAAAAAAAAGGTGCTACAAAATGAATAAAAA [GTGCAC_site9659] | 8.95 ± 0.44
69 | AATATAAATAATTATACACACTTAATATATATATAC [CACACA_site5533] | 8.46 ± 0.54

Row | Sequence | gcPBM binding intensity (ln)
70 | TAGGTGCCTTTTTTCACACACATGTCAACTAAATAT [CACACA_site2656] | 8.83 ± 0.31
71 | ATATTTAGGAAAAATAGTACACATTTAAATAATAAT [XGTACX_site7989] | 8.63 ± 0.33
72 | CTTTAAATTAATAAAAGTACATTATTTATATATTTT [XGTACX_site4808] | 8.02 ± 0.42
73 | AAATATATATATATATATATAAATATATACATATAT [TGCATGCA_negctrl_site517] | 8.12 ± 0.33
74 | AAAATGTCCCGTAGAAAATAAATTTATTACGCAATA [CACACA_negctrl_site1564] | 8.45 ± 0.49
75 | TATTAATTTAAATGGGTGCAAAACCTATATAAATAT | 8.76 ± 0.13
76 | ATTTATGTTAATAAGTGTACAATAAATTTTTTTTAT [XGTACX_site7658] | 8.21 ± 0.11
77 | AACATATATAAATACACACACATATATATATGAAAT [CACACA_site4312] | 8.65 ± 0.52
78 | ATGTGTATATATATGTGTACATAATTTGTGTTATTC [XGTACX_site2509] | 8.65 ± 0.42
79 | TAATATGTTTATGGTAACATACAAAAATGTATATAT [GTGCAC_negctrl_site204] | 8.21 ± 0.49
80 | TATCCCCTTGTCCATATTAATTGTGACATCATATAT [XGTACX_negctrl_site9] | 8.91 ± 0.45
81 | TATTTTTTATTTTAAATCCTCTGATATTTAATTTGT [TGCATGCA_negctrl_site84] | 8.35 ± 0.35
82 | AAGGTATAATATATTTGTACATATACATTTTTGAAT [XGTACX_site6493] | 8.3 ± 0.26
83 | GATTTTAATGGGTGTACACATTTATTTATATAAAGT [CACACA_site5317] | 8.63 ± 0.25
84 | TGAAAAATGTAATGCTCACACATATATATATATATA [CACACA_site5213] | 10.2 ± 0.32
85 | ACATTTAAATAATATGTGCACAGCTATATTTTCTTT [GTGCAC_site9562] | 8.79 ± 0.3
86 | ATATATATATATATATGTACATATATATATTATATT [XGTACX_site6303] | 10 ± 0.62
87 | TTATGGTGCATGAAATCACACATTGATATATATGCT [CACACA_site5352] | 8.53 ± 0.028
88 | GTGTCTTTTATTAAATGTACATATTCATAGATAAAA [XGTACX_site8578] | 8.63 ± 0.37
89 | TAGAATGAAAAAAAAGCATGCGGGCAAAAATTTTTA [TGCATGCA_site926] | 9.43 ± 0.58
